Screen size: about 52,000 compounds; about 1,700 (3.3%) were called active. No stated cut-off is given here; in the data, active means survival mostly below about 52% (no sharp cut-off); inactive means mostly above about 56%. The list shows a part of the results.
System: Wild type
Test: growth inhibition of S. aureus wild type versus tarO mutant, primary screen, teichoic acid synthesis inhibitors, RN4220, OD600 (AID 463173)
Settings: S. aureus RN4220 wild type/DeltatarO growth, OD600, 18 h, hits give low values, screened at 18.75 µg/mL (by protocol)

With `O=C(NCc1cccc(Cl)c1)c1cnc(N2CCCCC2)c2ccccc12` as the compound, how does the survival read?
Its survival is inactive: 89%.

With `COc1ccc(CCNC(=O)Cn2c(=O)c3sccc3n(CC(=O)Nc3cccc(C(F)(F)F)c3)c2=O)cc1OC` as the compound, how does the survival read?
The survival was inactive: 72%.

`COc1ccc(Cl)cc1NC(=O)C(OC)c1ccccc1` (stereo not given) was tested. Which survival did it give?
The survival was inactive: 109%.

How did the survival turn out when `Cc1cccc(N2CCN(c3ncnc4onc(C)c34)CC2)c1C` was run?
The survival was inactive: 84%.

Which survival does the source give for `COC(=O)c1cccc(Nc2c(-c3ccc(SC)cc3)nc3nc[nH]n23)c1` here?
The survival was inactive: 82%.

`CCc1ccc(C2N=C(N)Nc3nc4ccccc4n32)cc1` (stereo not given) was tested. Which survival did it give?
Its survival is inactive: 92%.

For `Cc1ccc(-n2ncc(C(=O)NCCc3ccsc3)c2C2CCN(C(=O)OC(C)(C)C)CC2)c(C)c1`, which survival is on record?
The survival was inactive: 73%.

How did the survival turn out when `COc1ccc(Cl)cc1NC(=O)CN(c1cccc(C)c1C)S(C)(=O)=O` was run?
The survival was inactive: 91%.

For `O=C(CCCCCn1c(=O)[nH]c2ccccc2c1=O)NCCc1ccccc1`, which survival is on record?
Its survival is inactive: 92%.

`Cc1cccc(S(=O)(=O)c2cn(Cc3ccc(F)cc3)c3cc(N4CCCCC4)c(F)cc3c2=O)c1` was tested. Which survival did it give?
The survival was active: -4%.

How did the survival turn out when `Cc1ccc2c(c1)cc(CN(Cc1ccco1)C(=O)NCc1ccccc1)c1nnnn12` was run?
The survival was inactive: 102%.

For `COc1cc(C(=O)NN)ccc1-c1ccc(C(=O)NN)cc1`, which survival is on record?
Its survival is inactive: 111%.

`O=C(CSc1nc2c([nH]c3ccccc32)c(=O)n1-c1ccc(Cl)cc1)NCc1ccccc1` was tested. Which survival did it give?
The survival was inactive: 60%.

`CCc1ccc(CNC(=O)CN2C(=O)CSc3ccc(S(=O)(=O)N4CCOCC4)cc32)cc1` was tested. Which survival did it give?
The survival was inactive: 82%.

Which survival does the source give for `COc1cccc(C(=O)N(Cc2ccc(N(C)C)cc2)Cc2ccco2)c1` here?
The survival was inactive: 86%.

How did the survival turn out when `CC1=C(C(=O)Nc2cc(Cl)ccc2C)C(c2ccccc2F)n2ncnc2N1` (stereo not given) was run?
Its survival is inactive: 78%.

`CN1CCN(C(CNC(=O)C(=O)Nc2ccccc2C#N)c2ccc3c(c2)OCO3)CC1` (stereo not given) was tested. Which survival did it give?
The survival was inactive: 75%.

With `CCc1ccccc1NC(=O)c1cc(-c2ccc(OC)cc2)on1` as the compound, how does the survival read?
Its survival is inactive: 100%.

For `O=c1c(Cl)c(NCc2ccco2)cnn1Cc1ccccc1`, which survival is on record?
The survival was inactive: 115%.

For `COc1ccc(C(=O)Cn2nnc(-c3ccccc3)n2)cc1`, which survival is on record?
The survival was inactive: 109%.

How did the survival turn out when `CCc1ccc(S(=O)(=O)NCc2cccn2Cc2cccc(C)c2)cc1` was run?
Its survival is inactive: 71%.

Which survival does the source give for `COc1cc(C(=O)Nc2sc3c(c2C(N)=O)CCC(C)C3)cc(OC)c1OC` (stereo not given) here?
The survival was inactive: 76%.

For `CCn1c(=O)c(=O)n(CC)c2cc(N3CCCCC3)c(NC(=O)c3ccc(OC)c(OC)c3)cc21`, which survival is on record?
The survival was inactive: 84%.

Which survival does the source give for `Cc1ccc2sc(N(CCCN(C)C)C(=O)c3ccco3)nc2c1C` here?
Its survival is inactive: 121%.

With `COc1ccc(CCNC(=O)CSc2cc(=O)n(C)c3ccccc23)cc1OC` as the compound, how does the survival read?
The survival was inactive: 75%.

`COC(=O)c1ccc(NC(=O)CC2C(=O)N(c3cccc(F)c3)C(=O)N2CC(C)C)cc1` (stereo not given) was tested. Which survival did it give?
The survival was inactive: 77%.

`CCCNC(=O)C1CCC(Cn2c(=O)c3sccc3n(CC(=O)N(CC)CC)c2=O)CC1` (stereo not given) was tested. Which survival did it give?
The survival was inactive: 128%.

How did the survival turn out when `COc1cccc(/C=N/NC(=O)c2ccccc2O)c1` was run?
The survival was inactive: 100%.

How did the survival turn out when `COc1ccc(NC(=O)Cn2nnnc2-c2ccccc2F)c(C)c1` was run?
Its survival is inactive: 95%.

How did the survival turn out when `Cc1ccc(-n2nc(C(=O)N3CCCCC3)c(=O)n(C)c2=O)cc1` was run?
Its survival is inactive: 64%.

How did the survival turn out when `CCCN(CCC)CCNC(=O)CS(=O)Cc1nc(-c2ccc(OC)c(OC)c2)oc1C` (stereo not given) was run?
The survival was inactive: 91%.

How did the survival turn out when `CC(=O)Nc1ccc(S(=O)(=O)N2CCC(C)CC2)cc1` was run?
The survival was inactive: 112%.

How did the survival turn out when `COc1ccc(CN2C(=O)N(c3cccc(C)c3)C(=O)C2CC(=O)Nc2ccc(F)cc2)cc1OC` (stereo not given) was run?
Its survival is inactive: 73%.

Which survival does the source give for `COc1ccc(-n2c(=O)c3ccc(C(=O)NCc4ccc(C)cc4)cc3n(CC(=O)Nc3cccc(F)c3)c2=O)cc1` here?
The survival was inactive: 68%.

How did the survival turn out when `Cc1ccc(CNC(=O)c2cc3cc(C)ccc3n2C)cc1` was run?
The survival was inactive: 89%.

`CNc1ccc(-c2nc(-c3ccccn3)no2)cc1[N+](=O)[O-]` was tested. Which survival did it give?
Its survival is inactive: 89%.

Which survival does the source give for `COc1cccc(C(=O)Nc2nc3c(s2)CCCC3)c1` here?
The survival was inactive: 116%.

With `CN(Cc1ccccc1)C(=O)C(=O)Nc1ccc2nc3n(c(=O)c2c1)CCCCC3` as the compound, how does the survival read?
Its survival is inactive: 92%.

With `CN(C(=O)C1CC1)c1nnc(-c2ccc(F)cc2)s1` as the compound, how does the survival read?
Its survival is inactive: 111%.

Which survival does the source give for `CCOc1ccc(C2c3[nH]c4ccccc4c3CCN2C(=O)CSc2ccccc2)cc1` (stereo not given) here?
Its survival is inactive: 152%.

For `COCCCNC(=O)Cn1c(=O)n(-c2ccccc2)c(=O)c2c1c1cc(OC)ccc1n2C`, which survival is on record?
Its survival is inactive: 55%.

`CCOc1cc(CNCCSc2nnnn2C)ccc1OCc1ccc(Cl)cc1Cl` was tested. Which survival did it give?
The survival was active: -5%.

For `Cc1ccc(NC(=O)CN2C(=O)COc3ccc(S(=O)(=O)N4CCCCC4)cc32)cc1Cl`, which survival is on record?
Its survival is inactive: 93%.

Which survival does the source give for `CCOC(=O)c1cc(NC(=O)c2ccc(C)cc2)c(=O)n2c1oc1ccccc12` here?
The survival was inactive: 87%.

Which survival does the source give for `CC(=O)Nc1ccc2nc(SCCOc3ccc(C)cc3)sc2c1` here?
Its survival is inactive: 95%.

Which survival does the source give for `COc1ccc(Cn2c(SCc3ccc(C(=O)NC4CCCCC4)cc3)nc3cccnc32)cc1` here?
Its survival is inactive: 124%.

How did the survival turn out when `COc1ccc(Nc2ncnc3scc(-c4ccc(F)cc4)c23)cc1` was run?
The survival was inactive: 79%.

With `CN1CCN(C(=O)C2C3C=CC(C3)C2C(=O)O)CC1` (stereo not given) as the compound, how does the survival read?
Its survival is inactive: 104%.

`COc1ccccc1-c1cc(C(F)(F)F)nc(S(=O)(=O)CCCC(=O)Nc2ccccc2F)n1` was tested. Which survival did it give?
Its survival is inactive: 85%.

With `CCc1c(CN2CCN(c3ccc(F)cc3)CC2)csc1C` as the compound, how does the survival read?
The survival was inactive: 75%.

For `COc1ccc(NC(=O)c2sc3nc(C)c(C(=O)Nc4ccc(C)cc4C)c(-c4sccc4C)c3c2N)cc1`, which survival is on record?
The survival was inactive: 87%.

Which survival does the source give for `O=C(COc1ccc(Cl)cc1)NCCc1csc(-c2ccc(C(F)(F)F)cc2)n1` here?
The survival was inactive: 76%.

With `COCCNc1nc2c(S(=O)(=O)c3ccccc3)nnn2c2ccc(Cl)cc12` as the compound, how does the survival read?
Its survival is inactive: 81%.

For `COc1cc2c(cc1NC(=O)COc1cc(C)cc(C)c1)oc1ccccc12`, which survival is on record?
Its survival is inactive: 75%.

`COc1ccc(C)cc1Nc1nc2c(S(=O)(=O)c3cc(C)ccc3C)nnn2c2ccsc12` was tested. Which survival did it give?
Its survival is inactive: 89%.

Which survival does the source give for `Cc1ccc(CN2CCC(CNC(=O)Nc3ccccc3F)CC2)cc1` here?
The survival was inactive: 118%.

`CN(C)c1ccc(C(=O)Nc2sc(Nc3ccccc3)nc2C(N)=O)cc1` was tested. Which survival did it give?
The survival was inactive: 88%.

With `Cc1oc2c(cc(NS(=O)(=O)c3ccc(Br)cc3)c3ccccc32)c1C(=O)OCc1ccccc1` as the compound, how does the survival read?
The survival was inactive: 72%.

With `Cc1ccc(C(=O)COC(=O)CCc2nc3ccccc3[nH]c2=O)cc1C` as the compound, how does the survival read?
Its survival is inactive: 109%.

For `COc1ccc(Cn2c(CCC(=O)Nc3ccc(Br)c(C)c3)nc3cccnc32)cc1`, which survival is on record?
The survival was inactive: 64%.

For `CCCCCn1c(=O)[nH]c2cc(C(=O)N3CCN(c4ccc(OC)cc4)CC3)ccc2c1=O`, which survival is on record?
Its survival is inactive: 142%.

With `CCOC(=O)C1CCC(CN(Cc2ccc(OC)cc2)S(=O)(=O)c2ccc(C)cc2)CC1` (stereo not given) as the compound, how does the survival read?
Its survival is inactive: 71%.

How did the survival turn out when `NNc1ncccc1C(=O)O` was run?
Its survival is inactive: 95%.

`COc1cc(OC)c(C(=O)NCc2nc(-c3ccccc3)no2)cc1OC` was tested. Which survival did it give?
The survival was inactive: 81%.

For `O=C(Nc1cc(Cl)cc(Cl)c1)c1ccc(F)c(S(=O)(=O)N2CCCC2)c1`, which survival is on record?
The survival was inactive: 71%.

`CCCC(=O)Oc1c(Sc2ccc(C)cc2)c(C)nn1-c1ccccc1` was tested. Which survival did it give?
The survival was inactive: 72%.

`CCc1ccc(CN(Cc2ccco2)c2cnc(S(C)(=O)=O)nc2C(=O)Nc2ccc(C)c(Cl)c2)cc1` was tested. Which survival did it give?
Its survival is inactive: 86%.

How did the survival turn out when `CC(=O)Nc1ccc(S(=O)(=O)N2CCC(N3CCN(Cc4ccc(C)cc4)C(=O)C3=O)CC2)cc1` was run?
The survival was inactive: 92%.

For `CC1Cc2cc(S(=O)(=O)CCC(=O)Nc3cccc(F)c3)ccc2N1C(=O)C1CC1` (stereo not given), which survival is on record?
Its survival is inactive: 70%.

How did the survival turn out when `O=C(Cn1nnc(-c2ccc(C(F)(F)F)cc2)n1)NCCc1ccccc1` was run?
Its survival is inactive: 90%.

For `Cc1cc(C)cc(NS(=O)(=O)c2cc3[nH]c(=O)c(=O)[nH]c3cc2C)c1`, which survival is on record?
The survival was inactive: 72%.

For `O=C(Cn1ncn2c(cc3cc(F)ccc32)c1=O)NC1CCCCC1`, which survival is on record?
Its survival is inactive: 81%.

With `COC(=O)c1ccccc1NC(=O)c1cc2ccccn2n1` as the compound, how does the survival read?
Its survival is inactive: 72%.

Which survival does the source give for `O=C(O)C1C2C3C=CC(C3)C12` (stereo not given) here?
Its survival is inactive: 109%.

Which survival does the source give for `Cc1ccc(NC(=O)CN(C)S(=O)(=O)c2cccc3cccnc23)c(C)c1` here?
The survival was inactive: 75%.

Which survival does the source give for `Cc1cccc(OCCn2c(SCC(N)=O)nc3ccccc32)c1` here?
The survival was inactive: 126%.

For `CCc1noc(-c2ccc(N3CCC(C)CC3)c([N+](=O)[O-])c2)n1`, which survival is on record?
Its survival is inactive: 93%.

For `Cc1nn2c(=O)cc(COC(=O)c3ccc(NC(=O)CCc4ccccc4)cc3)nc2s1`, which survival is on record?
Its survival is inactive: 74%.

How did the survival turn out when `CCC(Sc1nc2cc3c(cc2c(=O)n1CCCCCC(=O)NCc1ccc2c(c1)OCO2)OCO3)C(=O)NCCCOC` (stereo not given) was run?
Its survival is inactive: 59%.

`COc1ccc(CCNC(=O)C(=O)NCC(c2ccco2)S(=O)(=O)c2cccs2)cc1` (stereo not given) was tested. Which survival did it give?
Its survival is inactive: 124%.

With `Cc1c(Cl)cccc1NC(=O)c1cc(-c2cccc(Cl)c2)on1` as the compound, how does the survival read?
The survival was inactive: 90%.

`CC(C)C(=O)Nc1ccccc1C(=O)OCc1cc(=O)n2nc(C3CC3)sc2n1` was tested. Which survival did it give?
Its survival is inactive: 100%.

Which survival does the source give for `COc1cc2c(C(=O)N3CCN(c4cccc(Cl)c4)CC3)cn(C)c(=O)c2cc1OC` here?
Its survival is inactive: 64%.

Which survival does the source give for `O=C(CN1C(=O)c2cccnc2Oc2ccc(Cl)cc21)NCCCN1CCCCC1` here?
Its survival is inactive: 68%.

Which survival does the source give for `O=C(Nc1cccc(Br)c1)Nc1nc2c(s1)CCCCCC2` here?
The survival was inactive: 73%.

How did the survival turn out when `COc1ccc(NC(=O)c2cnc(N3CCOCC3)c3ccccc23)cc1OC` was run?
Its survival is inactive: 102%.

How did the survival turn out when `Cc1cccc(-c2nc3cc(NC(=O)c4ccc(OCC(C)C)cc4)ccc3o2)c1` was run?
Its survival is inactive: 117%.

How did the survival turn out when `CCOC(=O)N1CCC(NC(=O)c2cnn(-c3ccc(C)cc3)c2-n2cccc2)CC1` was run?
The survival was inactive: 69%.

Which survival does the source give for `O=C(Nc1ccc2nc(SCCOc3ccccc3)sc2c1)c1ccco1` here?
The survival was inactive: 115%.

For `Cc1cccn2c(=O)c3cc(C(=O)NC(C)C)n(C)c3nc12`, which survival is on record?
The survival was inactive: 82%.

From PubChem BioAssay AID463173 (ICCB-Longwood Screening Facility, Harvard Medical School, 2010)
